From patent US20250289788A1, “HALOALKYL SULFONANILIDE COMPOUND AND HERBICIDE CONTAINING THE SAME” (SDS BIOTECH K.K., priority 2022, published 2025)
Some results were stated once for a whole list of compounds, not compound by compound. At least one compound was matched to its structure with a doubt left.

Columns and labels:
[1] = tested on: Monochoria vaginalis (MV); test: Test Example 1: herbicidal effect test using paddy field flooding treatment; assay type: in vivo; details: water surface application, 21 days after treatment
Ammannia multiflora (AM) = test: as above; assay type: in vivo; details: water surface application, 21 days after treatment

CCOC(=O)N(c1ccccc1CN1C(=O)Cc2ccc(Cl)cc21)S(=O)(=O)C(F)(F)F [Compound 8-11]
herbicidal efficacy (degree (%) of suppression of growth of terrestrial part) ([1]; dose 500 g a.i./ha): ≥ 80%
herbicidal efficacy (degree (%) of suppression of growth of terrestrial part) (Ammannia multiflora (AM); dose 250 g a.i./ha): ≥ 80%

COc1ccc(F)c2c1C(=O)N(Cc1ccccc1NS(=O)(=O)C(F)(F)F)CC2 [Compound 3-72]
herbicidal efficacy (degree (%) of suppression of growth of terrestrial part) ([1]; dose 250 g a.i./ha): ≥ 80%
herbicidal efficacy (degree (%) of suppression of growth of terrestrial part) (Ammannia multiflora (AM); dose 16 g a.i./ha): ≥ 80%

O=C1c2c(F)ccc(F)c2CCN1Cc1ccccc1N(C(=O)Oc1ccc([N+](=O)[O-])cc1)S(=O)(=O)C(F)(F)F [Compound 3-195]
herbicidal efficacy (degree (%) of suppression of growth of terrestrial part) ([1]; dose 125 g a.i./ha): ≥ 80%
herbicidal efficacy (degree (%) of suppression of growth of terrestrial part) (Ammannia multiflora (AM); dose 16 g a.i./ha): ≥ 80%

Cc1nc2c(o1)CCN(Cc1ccccc1NS(=O)(=O)C(F)(F)F)C2=O [Compound 6-10]
herbicidal efficacy (degree (%) of suppression of growth of terrestrial part) ([1]; dose 500 g a.i./ha): ≥ 80%
herbicidal efficacy (degree (%) of suppression of growth of terrestrial part) (Ammannia multiflora (AM); dose 500 g a.i./ha): ≥ 80%

C=CCOc1cccc2c1C(=O)N(Cc1ccccc1NS(=O)(=O)C(F)(F)F)C2 [Compound 2-23]
herbicidal efficacy (degree (%) of suppression of growth of terrestrial part) ([1]; dose 500 g a.i./ha): ≥ 80%
herbicidal efficacy (degree (%) of suppression of growth of terrestrial part) (Ammannia multiflora (AM); dose 250 g a.i./ha): ≥ 80%

O=C1c2c(F)ccc(F)c2CCN1Cc1ccccc1N(C(=O)OC1CCOC1)S(=O)(=O)C(F)(F)F (stereo not shown) [Compound 3-201]
herbicidal efficacy (degree (%) of suppression of growth of terrestrial part) ([1]; dose 125 g a.i./ha): ≥ 80%
herbicidal efficacy (degree (%) of suppression of growth of terrestrial part) (Ammannia multiflora (AM); dose 16 g a.i./ha): ≥ 80%

Cn1cccc1C(=O)N(c1ccccc1CN1CCc2c(F)ccc(F)c2C1=O)S(=O)(=O)C(F)(F)F [Compound 3-123]
herbicidal efficacy (degree (%) of suppression of growth of terrestrial part) ([1]; dose 500 g a.i./ha): ≥ 80%
herbicidal efficacy (degree (%) of suppression of growth of terrestrial part) (Ammannia multiflora (AM); dose 63 g a.i./ha): ≥ 80%

O=C1c2c(ccc3ccccc23)CCN1Cc1ccccc1NS(=O)(=O)C(F)(F)F [Compound 3-87]
herbicidal efficacy (degree (%) of suppression of growth of terrestrial part) ([1]; dose 500 g a.i./ha): ≥ 80%
herbicidal efficacy (degree (%) of suppression of growth of terrestrial part) (Ammannia multiflora (AM); dose 63 g a.i./ha): ≥ 80%

O=C1c2c(O)cccc2CCN1Cc1ccccc1NS(=O)(=O)C(F)(F)F [Compound 3-11]
herbicidal efficacy (degree (%) of suppression of growth of terrestrial part) ([1]; dose 500 g a.i./ha): ≥ 80%
herbicidal efficacy (degree (%) of suppression of growth of terrestrial part) (Ammannia multiflora (AM); dose 500 g a.i./ha): ≥ 80%

CCOC(=O)N(c1ccccc1CN1C(=O)Cc2cc(Cl)ccc21)S(=O)(=O)C(F)(F)F [Compound 8-9]
herbicidal efficacy (degree (%) of suppression of growth of terrestrial part) ([1]; dose 500 g a.i./ha): ≥ 80%
herbicidal efficacy (degree (%) of suppression of growth of terrestrial part) (Ammannia multiflora (AM); dose 250 g a.i./ha): ≥ 80%

COc1ccc2c(c1)CN(Cc1ccccc1NS(=O)(=O)C(F)(F)F)C2=O [Compound 2-43]
herbicidal efficacy (degree (%) of suppression of growth of terrestrial part) ([1]; dose 500 g a.i./ha): ≥ 80%
herbicidal efficacy (degree (%) of suppression of growth of terrestrial part) (Ammannia multiflora (AM); dose 250 g a.i./ha): ≥ 80%

CCCCCCCOC(=O)N(c1ccccc1CN1CCc2c(F)ccc(F)c2C1=O)S(=O)(=O)C(F)(F)F [Compound 3-169]
herbicidal efficacy (degree (%) of suppression of growth of terrestrial part) ([1]; dose 250 g a.i./ha): ≥ 80%
herbicidal efficacy (degree (%) of suppression of growth of terrestrial part) (Ammannia multiflora (AM); dose 63 g a.i./ha): ≥ 80%

O=C(Oc1cccc2c1CCN(Cc1ccccc1NS(=O)(=O)C(F)(F)F)C2=O)c1ccccc1 [Compound 3-51]
herbicidal efficacy (degree (%) of suppression of growth of terrestrial part) ([1]; dose 250 g a.i./ha): ≥ 80%
herbicidal efficacy (degree (%) of suppression of growth of terrestrial part) (Ammannia multiflora (AM); dose 31 g a.i./ha): ≥ 80%

CCCOC(=O)N(c1ccccc1CN1CCc2c(F)ccc(F)c2C1=O)S(=O)(=O)C(F)(F)F [Compound 3-161]
herbicidal efficacy (degree (%) of suppression of growth of terrestrial part) ([1]; dose 500 g a.i./ha): ≥ 80%
herbicidal efficacy (degree (%) of suppression of growth of terrestrial part) (Ammannia multiflora (AM); dose 63 g a.i./ha): ≥ 80%

O=C1Cc2cc(Cl)ccc2N1Cc1ccccc1NS(=O)(=O)C(F)(F)F [Compound 8-3]
herbicidal efficacy (degree (%) of suppression of growth of terrestrial part) ([1]; dose 500 g a.i./ha): ≥ 80%
herbicidal efficacy (degree (%) of suppression of growth of terrestrial part) (Ammannia multiflora (AM); dose 125 g a.i./ha): ≥ 80%

O=C1c2cccc([N+](=O)[O-])c2CN1Cc1ccccc1NS(=O)(=O)C(F)(F)F [Compound 2-51]
herbicidal efficacy (degree (%) of suppression of growth of terrestrial part) ([1]; dose 500 g a.i./ha): ≥ 80%
herbicidal efficacy (degree (%) of suppression of growth of terrestrial part) (Ammannia multiflora (AM); dose 500 g a.i./ha): ≥ 80%

CCOC(=O)N(c1ccccc1CN1C(=O)Cc2cc(F)ccc21)S(=O)(=O)C(F)(F)F [Compound 8-8]
herbicidal efficacy (degree (%) of suppression of growth of terrestrial part) ([1]; dose 250 g a.i./ha): ≥ 80%
herbicidal efficacy (degree (%) of suppression of growth of terrestrial part) (Ammannia multiflora (AM); dose 125 g a.i./ha): ≥ 80%

COc1cccc2c1CN(Cc1ccccc1NS(=O)(=O)C(F)(F)F)C2=O [Compound 2-47]
herbicidal efficacy (degree (%) of suppression of growth of terrestrial part) ([1]; dose 500 g a.i./ha): ≥ 80%
herbicidal efficacy (degree (%) of suppression of growth of terrestrial part) (Ammannia multiflora (AM); dose 500 g a.i./ha): ≥ 80%

O=C1c2ccccc2CCN1Cc1cc(F)ccc1NS(=O)(=O)C(F)(F)F [Compound 4-4]
herbicidal efficacy (degree (%) of suppression of growth of terrestrial part) ([1]; dose 500 g a.i./ha): ≥ 80%
herbicidal efficacy (degree (%) of suppression of growth of terrestrial part) (Ammannia multiflora (AM); dose 63 g a.i./ha): ≥ 80%

N#Cc1cc(F)c2c(c1)CCN(Cc1ccccc1NS(=O)(=O)C(F)(F)F)C2=O [Compound 3-60]
herbicidal efficacy (degree (%) of suppression of growth of terrestrial part) ([1]; dose 125 g a.i./ha): ≥ 80%
herbicidal efficacy (degree (%) of suppression of growth of terrestrial part) (Ammannia multiflora (AM); dose 31 g a.i./ha): ≥ 80%

O=C1c2c(ccc(Cl)c2Cl)CCN1Cc1ccccc1NS(=O)(=O)C(F)(F)F [Compound 3-55]
herbicidal efficacy (degree (%) of suppression of growth of terrestrial part) ([1]; dose 125 g a.i./ha): ≥ 80%
herbicidal efficacy (degree (%) of suppression of growth of terrestrial part) (Ammannia multiflora (AM); dose 63 g a.i./ha): ≥ 80%

Cc1ccc(NS(=O)(=O)C(F)(F)F)c(CN2CCc3c(F)ccc(F)c3C2=O)c1 [Compound 4-18]
herbicidal efficacy (degree (%) of suppression of growth of terrestrial part) ([1]; dose 250 g a.i./ha): ≥ 80%
herbicidal efficacy (degree (%) of suppression of growth of terrestrial part) (Ammannia multiflora (AM); dose 125 g a.i./ha): ≥ 80%

O=C1c2cc([N+](=O)[O-])ccc2CN1Cc1ccccc1NS(=O)(=O)C(F)(F)F [Compound 2-38]
herbicidal efficacy (degree (%) of suppression of growth of terrestrial part) ([1]; dose 500 g a.i./ha): ≥ 80%
herbicidal efficacy (degree (%) of suppression of growth of terrestrial part) (Ammannia multiflora (AM); dose 250 g a.i./ha): ≥ 80%

CCOC(=O)N(c1ccccc1CN1CCc2c(F)ccc(F)c2C1=S)S(=O)(=O)C(F)(F)F [Compound 7-12]
herbicidal efficacy (degree (%) of suppression of growth of terrestrial part) ([1]; dose 125 g a.i./ha): ≥ 80%
herbicidal efficacy (degree (%) of suppression of growth of terrestrial part) (Ammannia multiflora (AM); dose 63 g a.i./ha): ≥ 80%

CCOC(=O)N(c1ccccc1CN1C(=O)c2ccccc2CC1C)S(=O)(=O)C(F)(F)F (racemic) [Compound 7-13]
herbicidal efficacy (degree (%) of suppression of growth of terrestrial part) ([1]; dose 125 g a.i./ha): ≥ 80%
herbicidal efficacy (degree (%) of suppression of growth of terrestrial part) (Ammannia multiflora (AM); dose 500 g a.i./ha): ≥ 80%

CC(C)=CCOC(=O)N(c1ccccc1CN1CCc2c(F)ccc(F)c2C1=O)S(=O)(=O)C(F)(F)F [Compound 3-191]
herbicidal efficacy (degree (%) of suppression of growth of terrestrial part) ([1]; dose 125 g a.i./ha): ≥ 80%
herbicidal efficacy (degree (%) of suppression of growth of terrestrial part) (Ammannia multiflora (AM); dose 125 g a.i./ha): ≥ 80%

O=C1c2c(O)ccc(F)c2CCN1Cc1ccccc1NS(=O)(=O)C(F)(F)F [Compound 3-71]
herbicidal efficacy (degree (%) of suppression of growth of terrestrial part) ([1]; dose 125 g a.i./ha): ≥ 80%
herbicidal efficacy (degree (%) of suppression of growth of terrestrial part) (Ammannia multiflora (AM); dose 250 g a.i./ha): ≥ 80%

O=C1c2ccc(Cl)cc2CCCN1Cc1ccccc1NS(=O)(=O)C(F)(F)F [Compound 5-5, N-[2-(N-trifluoromethanesulfonyl)aminobenzyl]-7-chloro-2,3,4,5-tetrahydro-1H-2-benzazepin-1-one]
herbicidal efficacy (degree (%) of suppression of growth of terrestrial part) ([1]; dose 125 g a.i./ha): ≥ 80%
herbicidal efficacy (degree (%) of suppression of growth of terrestrial part) (Ammannia multiflora (AM); dose 125 g a.i./ha): ≥ 80%

O=C1Cc2cc(Br)ccc2N1Cc1ccccc1NS(=O)(=O)C(F)(F)F [Compound 8-4]
herbicidal efficacy (degree (%) of suppression of growth of terrestrial part) ([1]; dose 1000 g a.i./ha): ≥ 80%
herbicidal efficacy (degree (%) of suppression of growth of terrestrial part) (Ammannia multiflora (AM); dose 1000 g a.i./ha): ≥ 80%

O=C1c2ccc(F)cc2CCN1Cc1ccccc1NS(=O)(=O)C(F)(F)F [Compound 3-35]
herbicidal efficacy (degree (%) of suppression of growth of terrestrial part) ([1]; dose 250 g a.i./ha): ≥ 80%
herbicidal efficacy (degree (%) of suppression of growth of terrestrial part) (Ammannia multiflora (AM); dose 125 g a.i./ha): ≥ 80%

CC=CC(=O)N(c1ccccc1CN1CCc2c(F)ccc(F)c2C1=O)S(=O)(=O)C(F)(F)F [Compound 3-116]
herbicidal efficacy (degree (%) of suppression of growth of terrestrial part) ([1]; dose 63 g a.i./ha): ≥ 80%
herbicidal efficacy (degree (%) of suppression of growth of terrestrial part) (Ammannia multiflora (AM); dose 16 g a.i./ha): ≥ 80%

O=C1c2cc(F)ccc2CN1Cc1ccccc1NS(=O)(=O)C(F)(F)F [Compound 2-31]
herbicidal efficacy (degree (%) of suppression of growth of terrestrial part) ([1]; dose 125 g a.i./ha): ≥ 80%
herbicidal efficacy (degree (%) of suppression of growth of terrestrial part) (Ammannia multiflora (AM); dose 125 g a.i./ha): ≥ 80%
